Our source for the self-cleavage values is the RNAGym collection of RNA variant scans (doi:10.1093/nar/gkz1192).

The source gives no read counts; variants with many changes may rest on few reads.

To fix the notation:
B1: CPEB3 Ribozyme (parent)
chain: UAACAGGGGGCCACAGCAGAAGCGUUCACGUCGCAGCCCCUGUCAGAUUCUGGUGAAUCUGCGAAUUCUGCUGUAUAUCUC

Variants of B1 are the subject of the data set. In words: self-cleavage, relative activity (ratio to wild type); higher = more cleavage; in vitro, sequencing. A digest of the protocol:
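Relative activity compares each variant's cleaved/total read fraction with that of the unmutated ribozyme. To get these fractions, barcoded CPEB3 ribozyme libraries from rounds of error-prone PCR were transcribed with T7 RNA polymerase for 5 hours at 37°C and then given 15 min of DNase I treatment before EDTA was added. The RNAs were reverse transcribed with template switching and sequenced on Illumina, and DNA sequencing linked barcodes to variants. A minimum of 5 reads applied, and three batches were averaged.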
Consider A28G U69G U76C A77G, for which the self-cleavage was determined as 0.26. With A28G U60C U66C the figure was 0.4. With A28G U60A A64U U72C U80C the figure was 0.1; with A28G U49A U72G, 0.47.

With A28G U51C A64G U78C, the self-cleavage amounted to 0.35.

In the case of A28G U69A A77G, the self-cleavage turned out to be 0.21. Next, A28G U41C A45C U66C: 0.18.

On to A28G U41A A65G U69A U78A, for which the self-cleavage was determined as 0.08.

Consider A28G U31C U51A, for which the self-cleavage was 0.54.

Take A28G U54A A56G: the self-cleavage was determined as 0.34. Next, A28G U49C U54A A64U U69A: 0; A28G U31C A35U: 0.16. With A28G U54C U60C A64G U69C the figure was 0.32; with A28G U31C U78A, 0.53. On to A28G U43A A57U, for which the self-cleavage turned out to be 0.44. Next, A28G U41A U49A A56G U66C A77G: 0.07. Next, A28G U41C U49C: 0.61. Next, A28G U54A U72A: 0.35; A28G U60C A64U U76A: 0.2; A28G U43A C62G U67C: 0.09.

Turning to A28G U49C U69A, the self-cleavage is 0.08.

For the variant A28G U60C U76C, the self-cleavage was 0.38.

For A28G U43C A47U G53C, the self-cleavage was 0.09. Next, A28G U66A U78C: 0.19; A28G U60C A75U U78C: 0.1.

With A28G U41C U48C U51A C59A, the self-cleavage turned out to be 0.14. Next, A28G U43C U69C: 0.21; A28G U43C A45G U51C U54C: 0.08; A28G U31C G36U A56G A64C U66C U80A: 0.06. With A28G U72A U74A U76C the figure was 0.87. For A28G U31C C37U U48C G52U U67C, the self-cleavage came to 0.1. With A28G U66A U72C the figure was 0.18. Turning to A28G U49C A65U, the self-cleavage stood at 0.13. With A28G U49C A65G the figure was 0.12; with A28G U41G U54C A65G, 0.33; with A28G U48A U51A, 0.14. With A28G U41C A45U C79A the figure was 0.39; with A28G U31G A64G U74C, 0.25; with A28G U51A A57G U72C, 0.37. Next, A28G U41C U43C U48C U72A: 0.04; A28G U41A U54C C68A U72C: 0.09. For A28G U48C A77U, the self-cleavage is 0.5. With A28G U43G U54C C62U the figure was 0.14; with A28G U31G A77C, 0.17; with A28G U51A A65G, 0.18.

Take A28G U43C U80G: the self-cleavage was 0.31. Next, A28G U43C U80C: 0.2. Take A28G U41A C50U: the self-cleavage was found to be 0.49. With A28G U41A A77G the figure was 0.24.

As for A28G U69C U72C, the self-cleavage was found to be 0.13. Next, A28G U41A U54A U60C G63U U76C: 0.1. Next, A28G U51C A65G U72C: 0.23; A28G U41C U51A: 0.69; A28G U41C A77U: 0.66. Next, A28G U43C U60C: 0.36; A28G U48C A56U U78C: 0.16. Consider A28G U49C A64G U74A U80C, for which the self-cleavage was determined as 0.56. On to A28G U51C U60C U69C, for which the self-cleavage was found to be 0. In the case of A28G U43C U48C, the self-cleavage amounted to 0.79. On to A28G U49C U78C, for which the self-cleavage was 0.1. Next, A28G U51C U60A U66C: 0.15. With A28G U51A C62A the figure was 0.19; with A28G U58A U69C U72G A77G U80C, 0.06; with A28G U43C A56U, 0.11.

For the variant A28G U51C U60C U69C U74C, the self-cleavage was 0.1.

For A28G U67C U76A U80C, the self-cleavage worked out at 0.19. With A28G U41A U78C the figure was 0.25. With A28G U43A A75U U80C the figure was 0.7. With A28G U54C U67A the figure was 0.24. Consider A28G U51C A64G, for which the self-cleavage is 0.33. With A28G U58C A64G the figure was 0.17; with A28G U43C A56G C81U, 0.21.

On to A28G U48C C62G, for which the self-cleavage was 0.12. For A28G U31C U43C C44U A47G U66C, the self-cleavage was found to be 0.15. Turning to A28G U41A U54C A57G, the self-cleavage turned out to be 0.08. With A28G U51C U72C the figure was 0.42. In the case of A28G U41A U51A U78A, the self-cleavage came out at 0.23. With A28G U41C U67C, the self-cleavage came to 0.15. With A28G U67C U76A the figure was 0.13; with A28G U43C A57G, 0.22. With A28G U31C A45G the figure was 0.26; with A28G U48C U54G U69A U80C, 0.1; with A28G U48C U54A A77U, 0.22. With A28G U60A A65G U67G, the self-cleavage came to 0.06.

As to A28G U49C U60A U72A, the self-cleavage is 0.09. Turning to A28G U31C U58C G70U U72C, the self-cleavage was 0.08. On to A28G U41C U49C A75G, for which the self-cleavage was 0.17. As for A28G U51G A56U U72C U80C, the self-cleavage came out at 0.26. For A28G U60A A64C U69C, the self-cleavage was found to be 0.08. Next, A28G U54G U72C: 0.45; A28G U51A U58A: 0.2. A28G U43C U72C: the self-cleavage amounted to 0.4.

For A28G U48C U54C, the self-cleavage is 0.21.

A28G U31C A45U U66A: the self-cleavage worked out at 0.04. Next, A28G U41G G63U: 0.19; A28G U31C U48C U60A U67C U69C: 0.12. Next, A28G U58C U72C: 0.24; A28G U51A G52C U60C U69A: 0.26. Next, A28G U31C U41A U51C U72C U80C: 0.25; A28G U58A C59G U78C: 0.41; A28G U43A U66C: 0.63.

With A28G U60G U80A, the self-cleavage was determined as 0.25. With A28G U31C G36A U51C the figure was 0.16; with A28G U31C U60A, 0.15; with A28G U67A U74A, 0.25.

A28G U49C U51C U76G: the self-cleavage amounted to 0.

For the variant A28G U41C A57G U74A, the self-cleavage was found to be 0.5.

For the variant A28G U49C A64G A75G, the self-cleavage came out at 0.07.

With A28G U43G U48C, the self-cleavage turned out to be 0.09.

As for A28G U31C G33U A57G A64G U67A, the self-cleavage came out at 0.17. Regarding A28G U66C A75G, the self-cleavage was 0.13. With A28G U51C U67G the figure was 0.09; with A28G U43C U72G G73C, 0.59. With A28G U41A A64U U78C the figure was 0.18; with A28G U41G U43C A45G U78C, 0.45. Next, A28G U49C U66C A75G: 0.13. On to A28G U43C A75G C79U, for which the self-cleavage was 0.13. With A28G U51G U58C C62U the figure was 0.11. With A28G U43C C44U U69A U80C, the self-cleavage stood at 0.24. Consider A28G U48C U54A A65U, for which the self-cleavage turned out to be 0.09.

In the case of A28G U31C U48C U54C, the self-cleavage came to 0.11.

Consider A28G U43A U48C U78C, for which the self-cleavage came to 0.27.

For the variant A28G U41A A57G U58A, the self-cleavage came to 0.2. With A28G U43C A45U U78C the figure was 0.05. Next, A28G U48C U67A A75U: 0.19. On to A28G U51C U60C U76C, for which the self-cleavage came to 0.29. Consider A28G U54C U74C, for which the self-cleavage is 0.83.

Take A28G U43C U49A U72C: the self-cleavage was determined as 0.1. In the case of A28G U41C U43A, the self-cleavage was 0.28. With A28G U49C A56G, the self-cleavage came to 0.41. With A28G U54C U67C U80A the figure was 0.09. Regarding A28G U31C C32G U43C U78C U80A, the self-cleavage is 0.19. With A28G U43C U54C U60A the figure was 0.16. With A28G U43A U49C the figure was 0.21; with A28G U43C G53C U80C, 0.38. With A28G U69C U72C U74C, the self-cleavage was found to be 0.12. Next, A28G U48C U69C U74C: 0.18.

Consider A28G U58A U72C, for which the self-cleavage came out at 0.1.

Take A28G U48C A57G: the self-cleavage was 0.73.

Turning to A28G U43C G63C, the self-cleavage was 0.18. Next, A28G U41C G55U: 0.65; A28G U54C U60A U69C U72C: 0.17. Next, A28G U60C U78C U80G: 0.2. With A28G U49A U72C U76A the figure was 0.35; with A28G U54C A77G, 0.56. As for A28G U49C U60A U69A A77U, the self-cleavage was found to be 0.06. With A28G U41C U60A the figure was 0.25; with A28G U41C U60G, 0.13; with A28G U31C A56G, 0.23. As to A28G U48C A75G, the self-cleavage was 0.4. With A28G U48C A75U the figure was 0.22; with A28G U31C A64G U66A, 0.11. Next, A28G U43C U58C U60C: 0.22; A28G U49C U72A: 0.1. Next, A28G U58C C68G U78C: 0.07; A28G U41C A65G: 0.2; A28G U51A A56G A57G: 0.38. Regarding A28G U51A U60C, the self-cleavage came out at 0.2. Next, A28G U67G U69A: 0.17; A28G U31C C37A A56G: 0.1; A28G U31C G46A: 0.11. As for A28G U51A C81U, the self-cleavage turned out to be 0.42.

On to A28G U41C U48A, for which the self-cleavage was determined as 0.58. As to A28G U41A A57G U74C A75U, the self-cleavage is 0.14. Next, A28G U48C U60G U69C: 0.09; A28G U69C U78A: 0.14. With A28G U54G A56U U66C U78C the figure was 0.11.
